The campaign covered roughly 150,000 compounds. About 540 (0.36%) showed an effect of 50% or more. This is one part of the list.
Test system: Plasmodium falciparum
Experiment: Primary screen in NF54 nanoGlo assay, in single point, at 2uM, 72h; a lower Z score goes with more inhibition
Assay type: functional, Erythrocyte
Conditions: timepoint 72 hour

Compound | % Inhibition [%] | Z score
CC(C)CC(=O)N1CCCN(c2nc(C(F)(F)F)nc3ccccc23)CC1 | 6 | -0.76
Cc1ccc2c(c1)N(C(=O)c1c[nH]c(C)cc1=O)CCC2 | 36 | -4.1
CO[C@H]1CS(=O)(=O)C[C@@H]1NC(=O)c1sccc1Cl | -2 | 0.29
O=C(NCCc1n[nH]c(=O)[nH]1)c1c(F)cc(Br)cc1F | -3 | 0.32
CN1CCN(c2nc3c(c(N(C)C)n2)CN(C(=O)c2ccc(C(F)(F)F)cc2)CC3)CC1 | 5 | -0.71
CN(C[C@H]1CCOC1)C(=O)CCc1ccn(C)n1 | -6 | 1.03
C[C@H](NC(=O)c1cnn2c(-c3ccc(F)cc3)ccnc12)c1ccccc1 | -16 | 1.58
Nc1nnnn1CC(=O)NCc1ccc2c(c1)OCO2 | -3 | 0.53
CN(C[C@H]1Cc2ccccc2CO1)C(=O)c1cnccn1 | -13 | 1.49
COc1ccc(F)c(CN2CCC[C@@]3(CCN(C(=O)c4cc(C)[nH]n4)C3)C2)c1 | -3 | 0.47
O=C1NC2(CCCCCCC2)C(=O)N1Cc1cccc(Cl)c1 | 4 | -0.8
CN(c1ccc(NC(=O)N2CCC[C@H](O)C2)cc1F)C1CCCCC1 | -13 | 1.72
CC(C)[C@@H](NC(=O)C1COc2ccccc2O1)C(=O)Nc1nccs1 (stereo not given in full) | 4 | -0.56
CN(C)c1nn(CC(=O)N2CCN(c3ccccc3)CC2)cc1-c1ccccc1 | -4 | 0.62
O=C1C[C@@H](c2ccccc2)N(S(=O)(=O)c2ccc(F)c(C(F)(F)F)c2)CCN1 | -11 | 1.41
COc1ccc(O[C@@H](C(=O)Nc2ccc(C)c(C)c2)c2ccccc2)cc1 | -10 | 1.4
CCc1oc2ccccc2c1C(=O)N1CC[C@H](O)C1(C)C | -2 | 0.24
N#CCN1CCC(CNC(=O)[C@H]2CCCOC2)CC1 | -3 | 0.55
CC1CN(CC(O)Cn2ccnc2C(C)C)CC(C)O1 (stereo not given) | -5 | 0.61
COCCc1nnc(NC(=O)c2ccc3c(c2)CCCC3)o1 | -11 | 1.3
O=C(c1ccc(-n2cccn2)cc1)N1CCN(c2ccccc2O)CC1 | 36 | -1.02
CN(C)C(N)=NCCCc1ccccc1 | 11 | -2.05

Compound | % Inhibition [%] | Z score
CC(C)COCC(O)CN(Cc1ccc(F)cc1)CC1CC(c2ccccc2)=NO1 (stereo not given) | -15 | 2.15
COCCN(CC(=O)N(C)C)c1ncnc2c1ncn2CC1(CO)CCOCC1 | -2 | 0.23
CCc1ccccc1C(=O)N(C)CC1(CO)CCC1 | -13 | 2.51
C=C(C)CN(CC)C(=O)c1cn([C@@H](C)CC)cc(C(=O)NCc2ccco2)c1=O | -8 | 1.17
CN1CCN(C(=O)[C@H](C(=O)c2cccc(Cl)c2)n2ccccc2=O)CC1 | 35 | -4.46
Cc1nc2cc(CNC(=O)NC3CCCCC3)ccc2n1C | 0 | -0.02
O[C@H](c1cccnc1)c1ccc2c(c1)CNCCO2 | -4 | 0.74
COc1ccccc1OCC(=O)Nc1cc(-c2ccccn2)no1 | -13 | 1.26
COC(=O)NC1(CCC(=O)O)CCCCC1 | -9 | 0.96
CCc1cnc(CCNc2ncccc2C#N)s1 | -12 | 1.27
CCOC(=O)C1=C(c2ccccc2)S/C(=C2/C(=S)C(C)(C)N(C(C)=O)c3ccc(OCC)cc32)S1 | -12 | 1.9
COCc1cc(CN[C@@H](C)C2(S(C)(=O)=O)CC2)ccc1F | -1 | 0.23
CC(=O)N[C@H]1[C@H](Oc2ccccc2Cl)O[C@@H]2COC(c3ccco3)O[C@H]2[C@@H]1O (stereo not given in full) | -1 | 0.23
O=C(c1ccc(-c2nc(-c3ccc(Cl)cc3)no2)cc1)N1CCCCC1 | 2 | -0.17
NC(=O)C1CCN(C(=O)c2ccc3c(c2)N(Cc2ccccc2)C(=O)CO3)CC1 | -12 | 2.19
CC(O)CC(C)(C)CNC(=O)NC1CC1c1ccc(F)cc1F (stereo not given) | 10 | -1.17
O=C(c1cn2ccccc2n1)N1CCN(C2CC2)CC1 | -6 | 0.7
CC1CN(C(=O)Cc2cnn(-c3ccccc3)n2)C(C)CO1 (stereo not given) | 2 | -0.33
Cc1ccn2c(NCc3cc(C#N)cs3)nnc2c1 | 6 | -0.77
Nc1c2c(nc3c1CCC3)CCCCC2 | 33 | -3.72
O=C(CC1CCCC1)N1CCC(O)(Cn2cc(C(=O)N3CCOCC3)nn2)CC1 | 29 | -3.26
O=C(NCCc1ccncc1)c1[nH]nc2c1CCc1ccccc1-2 | -4 | 0.47

Compound | % Inhibition [%] | Z score
O=C1CCCC[C@@H]1S(=O)(=O)N1CCC(C(F)F)CC1 | -4 | 0.95
CC[C@H](C)N(CCc1nc(-c2ccc(OC)c(OC)c2)no1)C(=O)C1CCC1 | -11 | 1.48
C[C@H]1C(=O)N(c2cccc3ccccc23)CCN1C(=O)Nc1ccccc1 | 9 | -1.11
O=C1[C@@H]2CCCN2C(=O)N1Cc1c(Cl)cccc1Cl | -10 | 1.6
CC(C)(C)[C@H](CO)CNC(=O)c1cnccn1 | -19 | 2.66
COC[C@H](C)N(C)C(=O)c1csc(NC(C)=O)n1 | -8 | 1.5
CCc1ccnc(C(=O)N[C@@H]2C=C[C@H](CO)C2)c1 | -14 | 2.53
O[C@@H](CNc1cc(C(F)(F)F)ccn1)CN1CCCCC1 | -2 | 0.34
Cc1ccc(-c2csc(NC(=O)Cc3n[nH]c(=O)c4ccccc34)n2)cc1 | -9 | 1.88
COc1ccc(CC(=O)N[C@H]2COCC[C@@H]2OCc2ccccn2)cc1 | -2 | 0.39
CCOc1ccc(CCNC(=O)C2CCCN(S(=O)(=O)N3CC(C)CC(C)C3)C2)cc1OCC (stereo not given) | 0 | -0.01
CC(=O)N[C@@H]1CN(C(=O)c2ccc3cc[nH]c3c2)C[C@H]1CO | -11 | 1.94
O=C1NC2(CCC3(CC2)OCCO3)C(=O)N1CCOc1ccc(F)cc1Cl | 2 | -0.27
CN(Cc1ccccc1F)C(=O)C(=O)Nc1ccc2c(c1)CCC(=O)N2 | -2 | 0.41
Cc1c(NC(=O)CN(C)Cc2cc(C(C)C)no2)cnn1C | 14 | -1.86
CN1N=C(C(=O)NCC2(N3CCOCC3)CCCCC2)CCC1=O | 0 | -0.01
O=C(Nc1ccc2nscc2c1)N1CCC(F)(F)C1 | -13 | 2.56
O=S1(=O)CCC[C@@]2(C(F)(F)F)CN(Cc3nncs3)C[C@H]21 | 0 | -0.01
CN(CCO)CCOCCOc1cc(Cl)ccc1Cl | 1 | -0.16
COCCN(CC(=O)N(CCc1c[nH]c2ccccc12)Cc1ccc(OC)c(OC)c1)C(=O)Nc1ccc(C(C)C)cc1 | -1 | 0.17
O=C(Nc1ccc(CCO)cc1)c1ccc(N2CCCN(Cc3cccc(F)c3)C2=O)cc1 | 0 | -0.03
O=S(=O)(Cc1ccccc1)N1CCC[C@H](c2nnn[nH]2)C1 | -9 | 1.32

Compound | % Inhibition [%] | Z score
COc1nc2c(cc1CNCc1noc(C3CC3)n1)C(=O)N(C(C)C)C2 | -28 | 2.77
COc1ccc(C(=O)N2CCc3nc(-c4cccc(OC)c4)sc3C2)cc1 | -10 | 1.16
CC(C)NC(=O)C1(C(=O)NC(C)C)CCC1 | -3 | 0.34
CCC1CCCCN1CCN1C(=O)[C@@H]2C(C(=O)Nc3ccc(OC)cc3)[C@@H]3C=C[C@]2(O3)C1C(=O)NC1CCCCC1 (stereo not given in full) | -6 | 0.91
CCCCN1CC(C(=O)N2CCCCC2CC)CC1=O (stereo not given) | 2 | -0.47
Cc1cc(F)c2c(c1)CCCN2CC(=O)NCCc1ccc(F)cc1 | -5 | 0.75
N[C@H]1CCCCN(C(=O)OCc2ccccc2Cl)C1 | 1 | -0.07
O=C(CC1CCCC1)NCC(=O)N[C@H]1CCC[C@H]1Oc1cc(F)cc(F)c1 | -4 | 0.49
Nc1nccnc1C(=O)N1CCCc2ccccc2C1 | -4 | 0.41
Cc1ccc(C)c(CN[C@@H](C)c2cncc(F)c2)c1 | 18 | -2.28
CCn1nc(C)c(CN[C@@H](C)c2cnc(N(C)C3CCCCC3)nc2C)c1C | 0 | 0.01
NC(=O)NCC(=O)N1CCCC[C@@H]1CCc1ccccc1 | 8 | -1.07
CS(=O)(=O)CCNC(=O)NC1C2CCc3ccccc3C21 (stereo not given) | 8 | -0.94
CN(Cc1ccc2c(c1)OCO2)C(=O)c1cccc(N2CCCC2=O)c1 | -3 | 0.42
C[C@H]1CN(C(=O)c2ncccc2O)C[C@]1(O)C1CC1 | -25 | 2.16
CCOC(=O)c1cnn2ccc(NC(=O)c3ccccc3Cl)cc12 | -12 | 1.8
Cc1cc(N2CCC(NC(=O)c3cn(C)nn3)CC2)n[nH]1 | -11 | 1.4
CCS(=O)(=O)N1CCC[C@H](Cc2nc(C3CC3)no2)C1 | 10 | -1.33
Cc1cnccc1-c1ccc(C(=O)N2CCOC[C@@H]2C)s1 | -6 | 0.87

— ChEMBL document CHEMBL4888484, “Replenishing the malaria drug discovery pipeline: Screening and hit evaluation of the MMV Hit Generation Library 1 (HGL1) against asexual blood stage Plasmodium falciparum ,using a nano luciferase reporter read-out” (2022)
